Experimental data published in the supplement of paper PMC7125110.
± gives the standard error. Variants at the background level are over-represented here.

B1: glmS ribozyme (parent)
chain: AUAAAAGCGCCAGAACUACAGAAAUGUAGUUGACGAGGAGGAGGUUUAUCGAAUUUUCGGCGGAUGCCUCCAAA

Key:
Details in all cases: with glucosamine-6-phosphate
glucosamine-6-phosphate [1] = variants of: B1; assay: self-cleavage kobs at 40 uM GlcN6P; higher = faster cleavage; RNA array
Procedure, shortened: (§1)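 Over ~14 h at 37 °C, tiles were imaged as glucosamine-6-phosphate (40 μM to 10 mM) in HEPES/KCl/Mg(OAc)2 buffer flowed across sequenced MiSeq chips. The chips carried barcoded ribozyme variants transcribed in situ by E. coli RNA polymerase and tracked with a hybridised Cy3 probe. After normalisation to baseline and to non-cleaving reference variants, one- or two-exponential decay fits of per-tile medians gave kobs. kcat and KM followed from weighted Michaelis–Menten fits across concentrations.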

glucosamine-6-phosphate [2] = variants of: B1; assay: self-cleavage kobs at 160 uM GlcN6P; higher = faster cleavage; RNA array
Procedure, shortened: as §1

glucosamine-6-phosphate [3] = variants of: B1; assay: self-cleavage kobs at 2500 uM GlcN6P; higher = faster cleavage; RNA array
Procedure, shortened: as §1

glucosamine-6-phosphate [4] = variants of: B1; assay: self-cleavage kobs at 10000 uM GlcN6P; higher = faster cleavage; RNA array
Procedure, shortened: as §1

glucosamine-6-phosphate [5] = variants of: B1; assay: self-cleavage kobs at 640 uM GlcN6P; higher = faster cleavage; RNA array
Procedure, shortened: as §1

With G44U G66C the “self-cleavage kobs at 40 uM GlcN6P” value (glucosamine-6-phosphate [1]) was under 1e-05 s⁻¹ and the “self-cleavage kobs at 160 uM GlcN6P” value (glucosamine-6-phosphate [2]) was under 1e-05 s⁻¹.

For A48C G59A G62U, the “self-cleavage kobs at 40 uM GlcN6P” value (glucosamine-6-phosphate [1]) was under 1e-05 s⁻¹, the “self-cleavage kobs at 160 uM GlcN6P” value (glucosamine-6-phosphate [2]) was under 1e-05 s⁻¹ and the “self-cleavage kobs at 2500 uM GlcN6P” value (glucosamine-6-phosphate [3]) was under 1e-05 s⁻¹. For the same variant, the “self-cleavage kobs at 10000 uM GlcN6P” value (glucosamine-6-phosphate [4]) was under 1e-05 s⁻¹.

In the case of A48C U69G, the “self-cleavage kobs at 40 uM GlcN6P” value (glucosamine-6-phosphate [1]) is reported as under 1e-05 s⁻¹, the “self-cleavage kobs at 160 uM GlcN6P” value (glucosamine-6-phosphate [2]) is reported as under 1e-05 s⁻¹ and the “self-cleavage kobs at 10000 uM GlcN6P” value (glucosamine-6-phosphate [4]) is reported as under 1e-05 s⁻¹.

U49A U57A was tested, and the “self-cleavage kobs at 40 uM GlcN6P” value (glucosamine-6-phosphate [1]) was under 1e-05 s⁻¹, the “self-cleavage kobs at 640 uM GlcN6P” value (glucosamine-6-phosphate [5]) was under 1e-05 s⁻¹ and the “self-cleavage kobs at 160 uM GlcN6P” value (glucosamine-6-phosphate [2]) was under 1e-05 s⁻¹. For the same variant, the “self-cleavage kobs at 10000 uM GlcN6P” value (glucosamine-6-phosphate [4]) was under 1e-05 s⁻¹.

U46A C70A was tested, and the “self-cleavage kobs at 40 uM GlcN6P” value (glucosamine-6-phosphate [1]) was under 1e-05 s⁻¹.

U55A G62C was tested, and the “self-cleavage kobs at 40 uM GlcN6P” value (glucosamine-6-phosphate [1]) was under 1e-05 s⁻¹, the “self-cleavage kobs at 640 uM GlcN6P” value (glucosamine-6-phosphate [5]) was under 1e-05 s⁻¹ and the “self-cleavage kobs at 10000 uM GlcN6P” value (glucosamine-6-phosphate [4]) was under 1e-05 s⁻¹.

In the case of G44C A52C, the “self-cleavage kobs at 40 uM GlcN6P” value (glucosamine-6-phosphate [1]) is reported as under 1e-05 s⁻¹, the “self-cleavage kobs at 640 uM GlcN6P” value (glucosamine-6-phosphate [5]) is reported as under 1e-05 s⁻¹ and the “self-cleavage kobs at 160 uM GlcN6P” value (glucosamine-6-phosphate [2]) is reported as under 1e-05 s⁻¹. For the same variant, the “self-cleavage kobs at 2500 uM GlcN6P” value (glucosamine-6-phosphate [3]) was under 1e-05 s⁻¹ and the “self-cleavage kobs at 10000 uM GlcN6P” value (glucosamine-6-phosphate [4]) was under 1e-05 s⁻¹.

For G43U U47A, the “self-cleavage kobs at 40 uM GlcN6P” value (glucosamine-6-phosphate [1]) was under 1e-05 s⁻¹.

In the case of G9U A12U A33C G37C A64C, the “self-cleavage kobs at 640 uM GlcN6P” value (glucosamine-6-phosphate [5]) is reported as under 1e-05 s⁻¹ and the “self-cleavage kobs at 2500 uM GlcN6P” value (glucosamine-6-phosphate [3]) is reported as under 1e-05 s⁻¹.

With U54C U69A the “self-cleavage kobs at 40 uM GlcN6P” value (glucosamine-6-phosphate [1]) was 3.96e-05 ± 1.5e-05 s⁻¹, the “self-cleavage kobs at 640 uM GlcN6P” value (glucosamine-6-phosphate [5]) was 0.000111 ± 3.8e-05 s⁻¹ and the “self-cleavage kobs at 160 uM GlcN6P” value (glucosamine-6-phosphate [2]) was 6.58e-05 ± 2.2e-05 s⁻¹. The “self-cleavage kobs at 2500 uM GlcN6P” value (glucosamine-6-phosphate [3]) was 0.000123 ± 3.1e-05 s⁻¹ and the “self-cleavage kobs at 10000 uM GlcN6P” value (glucosamine-6-phosphate [4]) was 0.000105 ± 2e-05 s⁻¹.

In the case of A6G G9U A12U A15C G35C G38C G63A, the “self-cleavage kobs at 640 uM GlcN6P” value (glucosamine-6-phosphate [5]) is reported as under 1e-05 s⁻¹ and the “self-cleavage kobs at 2500 uM GlcN6P” value (glucosamine-6-phosphate [3]) is reported as under 1e-05 s⁻¹.

G60U was tested, and the “self-cleavage kobs at 40 uM GlcN6P” value (glucosamine-6-phosphate [1]) was under 1e-05 s⁻¹, the “self-cleavage kobs at 640 uM GlcN6P” value (glucosamine-6-phosphate [5]) was under 1e-05 s⁻¹ and the “self-cleavage kobs at 160 uM GlcN6P” value (glucosamine-6-phosphate [2]) was under 1e-05 s⁻¹.

With C8A G41A G44U U47G C68U the “self-cleavage kobs at 640 uM GlcN6P” value (glucosamine-6-phosphate [5]) was under 1e-05 s⁻¹ and the “self-cleavage kobs at 2500 uM GlcN6P” value (glucosamine-6-phosphate [3]) was under 1e-05 s⁻¹.

For U54G U55A C70G, the “self-cleavage kobs at 40 uM GlcN6P” value (glucosamine-6-phosphate [1]) was 6.4e-05 ± 1.6e-05 s⁻¹, the “self-cleavage kobs at 640 uM GlcN6P” value (glucosamine-6-phosphate [5]) was 0.000102 ± 1.5e-05 s⁻¹ and the “self-cleavage kobs at 2500 uM GlcN6P” value (glucosamine-6-phosphate [3]) was 0.000157 ± 2.6e-05 s⁻¹. The “self-cleavage kobs at 10000 uM GlcN6P” value (glucosamine-6-phosphate [4]) was 0.000145 ± 2.6e-05 s⁻¹.

U47G A52G U69C was tested, and the “self-cleavage kobs at 40 uM GlcN6P” value (glucosamine-6-phosphate [1]) was 6.7e-05 ± 2.4e-05 s⁻¹ and the “self-cleavage kobs at 10000 uM GlcN6P” value (glucosamine-6-phosphate [4]) was 9.36e-05 ± 1.5e-05 s⁻¹.

With A6U G13U U46G U47G C61A the “self-cleavage kobs at 640 uM GlcN6P” value (glucosamine-6-phosphate [5]) was under 1e-05 s⁻¹.

In the case of U49G G63C, the “self-cleavage kobs at 40 uM GlcN6P” value (glucosamine-6-phosphate [1]) is reported as under 1e-05 s⁻¹, the “self-cleavage kobs at 160 uM GlcN6P” value (glucosamine-6-phosphate [2]) is reported as under 1e-05 s⁻¹ and the “self-cleavage kobs at 2500 uM GlcN6P” value (glucosamine-6-phosphate [3]) is reported as under 1e-05 s⁻¹. The “self-cleavage kobs at 10000 uM GlcN6P” value (glucosamine-6-phosphate [4]) was under 1e-05 s⁻¹.

With U45G C70U the “self-cleavage kobs at 40 uM GlcN6P” value (glucosamine-6-phosphate [1]) was 0.000542 ± 5.6e-05 s⁻¹, the “self-cleavage kobs at 640 uM GlcN6P” value (glucosamine-6-phosphate [5]) was 0.00288 ± 0.0004 s⁻¹ and the “self-cleavage kobs at 160 uM GlcN6P” value (glucosamine-6-phosphate [2]) was 0.00139 ± 0.00018 s⁻¹. The “self-cleavage kobs at 2500 uM GlcN6P” value (glucosamine-6-phosphate [3]) was 0.00473 ± 0.00096 s⁻¹ and the “self-cleavage kobs at 10000 uM GlcN6P” value (glucosamine-6-phosphate [4]) was 0.0102 ± 0.0013 s⁻¹.

A6U A33G U46A was tested, and the “self-cleavage kobs at 640 uM GlcN6P” value (glucosamine-6-phosphate [5]) was under 1e-05 s⁻¹.

For U56A C58U, the “self-cleavage kobs at 40 uM GlcN6P” value (glucosamine-6-phosphate [1]) was under 1e-05 s⁻¹.

In the case of U54C, the “self-cleavage kobs at 40 uM GlcN6P” value (glucosamine-6-phosphate [1]) is reported as 0.00101 ± 1.9e-05 s⁻¹, the “self-cleavage kobs at 640 uM GlcN6P” value (glucosamine-6-phosphate [5]) is reported as 0.0121 ± 0.0007 s⁻¹ and the “self-cleavage kobs at 160 uM GlcN6P” value (glucosamine-6-phosphate [2]) is reported as 0.00345 ± 0.00027 s⁻¹. The “self-cleavage kobs at 2500 uM GlcN6P” value (glucosamine-6-phosphate [3]) was 0.0274 ± 0.0017 s⁻¹ and the “self-cleavage kobs at 10000 uM GlcN6P” value (glucosamine-6-phosphate [4]) was 0.051 ± 0.0026 s⁻¹.
